From PubChem BioAssay AID651820 (National Center for Advancing Translational Sciences (NCATS), 2012)
The campaign covered roughly 340,000 compounds. About 12,000 (3.5%) were called active. Inconclusive means that the source gave no clear call. Such entries were picked first, then a sample of the others. The call rests on the fitted dose curve; in most records, active means well fitted inhibition curve with a large enough effect; inconclusive means small, poorly fitted or top-dose-only effect, or another doubt; inactive means no such curve, though single readings can be large or run the other way. No potency is given beside an inconclusive call; the fits are too rough.

experiment: qHTS Assay for Inhibitors of Hepatitis C Virus (HCV); conditions: Huh7.5.1 HCVcc-Cre (HCVcc is cell-culture hepatitis C virus) infection, luciferase reporter, 44 h; activity change, negative = inhibition: at 41.8 µM (top of the series) unless noted
Outline: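 Luciferase read-out (15 sec integration) after a 15 min room-temperature substrate step quantifies HCVcc-Cre infection. Cells, 1,000 per well, had compound added 4 h post-plating, then virus at ~0.5 moi, and were cultured 44 h.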
On the % scale 0 is the no-effect control and ±100 the full control effect; potency means the concentration at half of the fitted maximal effect; tags describe the fitted curve by direction and shape.

| SMILES | Potency | activity change, negative = inhibition |
| --- | --- | --- |
| O=C(/C=C/c1ccccc1)Nc1nc(-c2ccncc2)cs1 | active: 7.94 µM |  |
| CCOc1cc(C(=O)Nc2ccc(F)cc2)cc(Br)c1OC | inconclusive [inhibitor, partial curve] |  |
| OC(CN1CCN(C(c2ccccc2)c2ccccc2)CC1)c1ccc(Br)cc1 (centres undefined) | inconclusive [inhibitor, partial curve] |  |
| COc1cc(OC)cc(OCC(O)Cn2cnc3cc(C)c(C)cc32)c1 (centres undefined) | inconclusive [inhibitor, partial curve] |  |
| Cc1ccccc1CN(c1ccc(C(=O)N2CCc3ccccc3C2)cc1)S(C)(=O)=O | inconclusive [inhibitor, partial curve, poor fit] |  |
| O=C(c1cc(-c2cccs2)on1)N1CCN(c2ccc(F)cc2)CC1 | inconclusive [inhibitor, single point] |  |
| CC(C)(O)CCc1c(-c2ccc(O)cc2O)oc2c3c(cc(O)c2c1=O)OC(C)(C)C=C3 | active: 12.6 µM |  |
| C[C@@H]1[C@@H](Sc2ccccc2)CC(=O)O[C@@H]1c1ccc(-c2ccccc2)cc1 | inconclusive [inhibitor, single point] |  |
| O=C(CSc1ccc2ccccc2n1)N/N=C/c1ccccc1O | inconclusive [inhibitor, full curve] |  |
| Nc1ccccc1SCC(=O)Nc1ccc2c(c1)OCCO2 |  | inactive: 11.5% |
| O=C1C=C(c2cccc(Br)c2)C[C@@H](c2ccc(F)cc2)C1 | inconclusive [inhibitor, single point] |  |
| Cc1ccc(CCC(=O)Nc2ccc([N+](=O)[O-])cc2Cl)o1 | inconclusive [inhibitor, partial curve] |  |
| O=C1NC(=O)N(Cc2ccccc2)C(=O)/C1=C\N1CCCc2ccccc21 | inconclusive [inhibitor, partial curve] |  |
| CCOc1cccc(CN2CCCC(N3CCN(c4cccc(Cl)c4)CC3)C2)c1O (centres undefined) |  | inactive: -11.9% |
| O=C(Nc1cc(C(F)(F)F)ccc1N1CCCC1)C1=COCCO1 | inconclusive [inhibitor, single point] |  |
| CN=Cc1cc(-c2ccccc2)sc1O | inconclusive [inhibitor, single point] |  |
| Cc1onc(-c2ccccc2)c1CNC(=O)Nc1ccc(C(F)(F)F)cc1 |  | inconclusive: -71.2% [inhibitor] |
| Cc1ccc(S(=O)(=O)N2CCCc3cc(NC(=O)c4c(F)cccc4F)ccc32)cc1 | active: 10 µM |  |
| CN(C)CCCN1c2ccccc2Sc2ccc3ccccc3c21 | inconclusive [inhibitor, full curve, poor fit] |  |
| O=C1N(Cc2cccnc2)C[C@@H]2C[C@@H](c3cccc(OC4CCCC4)c3)N3CCC[C@@]123 | active: 12.6 µM |  |
| COc1ccc(Nc2c3c(nc4ccccc24)CCC3)cc1 | inconclusive [inhibitor, single point] |  |
| COc1ccc(-c2[nH]ncc2/C=C(/C#N)C(=O)NC2CCCCCC2)cc1 | active: 22.4 µM |  |
| Cc1ccsc1C(=O)N1CCN(C(=O)c2ccco2)CC1 |  | inactive: 12.5% |

| SMILES | Potency | activity change, negative = inhibition |
| --- | --- | --- |
| CC1(C)Cc2c(C#N)c(N3CCNCC3)nc(-c3ccco3)c2CS1 | inconclusive [inhibitor, partial curve] |  |
| COC(=O)N/N=C/c1cc(N=Nc2ccccc2Cl)ccc1O | inconclusive [inhibitor, partial curve] |  |
| Cc1cccc(NC(=O)C2CC2c2ccccc2)c1C (centres undefined) |  | inactive: -19.3% |
| Cc1ccc(S(=O)(=O)N2CCC(C(=O)NCCCN3CCCCCC3)CC2)cc1 | inconclusive [inhibitor, partial curve, poor fit] |  |
| COc1ccccc1Oc1nc2c(c(=O)n(Cc3ccccc3F)c(=O)n2C)n1C | inconclusive [inhibitor, full curve, poor fit] |  |
| COc1ccc2nc(N/C(N)=N/C(=S)Nc3c(C)cccc3C)nc(C)c2c1 | inconclusive [inhibitor, partial curve] |  |
| O=C(Nc1cccc(C(=O)NC2CCCC2)c1)c1ccccc1 | inconclusive [inhibitor, single point] |  |
| O=[N+]([O-])c1cc2c(cc1/C=N/Nc1nc(N3CCCC3)nc(N3CCCC3)n1)OCO2 | inconclusive [inhibitor, partial curve] |  |
| C#CCOC(=O)c1cc(Cl)c(=O)n(Cc2ccc(Cl)cc2Cl)c1 | inconclusive [inhibitor, single point] |  |
| O=C(CSc1nnc2ccccn12)NNC(=O)c1ccc(F)cc1 |  | inactive: 5.67% |
| CCN(CC)C(=O)C1CCN(S(=O)(=O)c2ccc3oc4ccccc4c3c2)CC1 | inconclusive [inhibitor, partial curve] |  |
| CN(Cc1ccccc1)Cc1nc2c(c(=O)n(C)c(=O)n2C)n1Cc1ccccc1Cl | inconclusive [inhibitor, partial curve] |  |
| O=C1/C(=C/c2ccc(F)cc2)SC(=S)N1CCCC(=O)N1CCCCC1CCO (centres undefined) | active: 11.2 µM |  |
| CC(=O)c1c(C)[nH]c(C(=O)Nc2nccs2)c1C | active: 10 µM |  |
| O/N=C/c1cc(Br)ccc1OCc1ccccc1F | inconclusive [inhibitor, single point] |  |
| COC(=O)c1c(C)oc(C)c1S(=O)(=O)NCc1ccco1 |  | inactive: 19.7% |
| CCOc1ccc(NC(=O)CSc2nc(N3CCOCC3)nc(N3CCOCC3)n2)cc1 | inconclusive [inhibitor, single point] |  |
| COC(=O)c1cccc(NC(=O)/C=C/c2cccc([N+](=O)[O-])c2)c1 | inconclusive [inhibitor, partial curve] |  |
| COc1ccc(-c2[nH]c(-c3cccc(OC)c3)nc2SCC(=O)NC2CCCC2)cc1 | inconclusive [inhibitor, single point] |  |
| CC(=O)N1c2ccc(S(=O)(=O)N3CCCC(C(=O)Nc4ccc(F)cc4)C3)cc2CC1C (centres undefined) | inconclusive [inhibitor, partial curve] |  |
| CCC(=O)N1c2ccccc2[C@@H](N(C(C)=O)c2ccccc2)C[C@H]1C |  | inactive: 12.1% |
| Cc1ccc(C2=NC3(CCCC3)N=C2SCC(=O)Nc2ccc3c(c2)OCCO3)cc1 | inconclusive [inhibitor, partial curve] |  |
| CCN(CC)C(=O)C1CCCN(c2ccc([N+](=O)[O-])cc2/C=N/NC(=O)c2ccccc2)C1 (centres undefined) | inconclusive [inhibitor, partial curve, poor fit] |  |

| SMILES | Potency | activity change, negative = inhibition |
| --- | --- | --- |
| O=C(C#Cc1ccccc1)c1ccc([N+](=O)[O-])cc1 | inconclusive [inhibitor, single point] |  |
| CCOc1cc(N2CCOCC2)c(OCC)cc1NC(=O)COC(=O)c1ccc(Cl)nc1 |  | inactive: -13.5% |
| O=C1CC2(CCCCCC2)Oc2ccccc21 | inconclusive [inhibitor, single point] |  |
| COc1cc(C(=O)Nc2ccc(S(=O)(=O)NC(C)C)cc2)cc(OC)c1OC | inconclusive [inhibitor, partial curve] |  |
| Cc1cccc(C(=O)NC(=S)NNC(=O)c2ccccc2Cl)c1 | inconclusive [inhibitor, single point] |  |
| COc1ccc(C(N)CCc2ccco2)cc1 (centres undefined) |  | inactive: 8.27% |
| Cc1ccc(S(=O)(=O)N2CCOCC2)cc1C(=O)Nc1nc(-c2ccccn2)cs1 | inconclusive [inhibitor, full curve] |  |
| NC(=O)c1c(NC(NC(=O)c2ccco2)C(=O)c2ccc(Cl)cc2)sc2c1CCCC2 (centres undefined) |  | inactive: -5.75% |
| CC(=O)Nc1cccc(NC(=O)C(=O)NCC(c2ccco2)N2CCc3ccccc3C2)c1 (centres undefined) | inconclusive [inhibitor, partial curve] |  |
| COc1ccccc1Oc1ccc(NC(=O)Cc2ccccc2)cc1 | inconclusive [inhibitor, single point] |  |
| COc1cc(C)nc(OCCNC(=O)COc2ccc(Cl)cc2C)n1 | inconclusive [inhibitor, single point] |  |
| COCCC(=O)Nc1ccc2c(c1)CN(C(=O)c1ccc(CSC)o1)CC2 | active: 10 µM |  |
| COc1cc(OC)c(/C=C2\SC(=O)N(CC(=O)Nc3ccccc3F)C2=O)c(OC)c1 | inconclusive [inhibitor, partial curve] |  |
| CCC1CCCCN1CCCNC(=O)c1cc2c(=O)oc3ccc(C)cc3c2s1 (centres undefined) | active: 12.6 µM |  |
| CC(=O)c1sc(-c2ccccc2Cl)nc1C |  | inactive: -0.908% |
| CCOc1ccc(C(=O)Nc2nc3ccccc3[nH]2)cc1OCC | inconclusive [inhibitor, partial curve] |  |
| CCOc1ccc(C(=O)N(CC)CC(=O)Nc2ccc3c(c2)OCCO3)cc1 |  | inactive: -17.4% |
| c1ccc(-c2cn(-c3ccccc3)c3[n+]2CCS3)cc1 | inconclusive [inhibitor, full curve, poor fit] |  |
| CCS(=O)(=O)c1ccc2oc(Nc3ccc(C(C)(C)C)cc3)nc2c1 | inconclusive [inhibitor, partial curve, poor fit] |  |
| CCOC(=O)/C(=N/Nc1ccc(Br)cc1)N1CC(C)OC(C)C1 (centres undefined) | inconclusive [inhibitor, partial curve] |  |
| CCOc1ccc(OCc2ccc(C(=O)NCc3ccncc3)o2)cc1 | active: 7.08 µM |  |
| COc1cc(NC(=O)c2cc(C(C)C)on2)c(OC)cc1Cl | active: 11.2 µM |  |
| COc1cc(NC(=O)C2CCCO2)c(OC)cc1NC(=O)c1ccccc1 (centres undefined) | inconclusive [inhibitor, single point] |  |
